167 variants from the RNAGym collection of RNA variant scans (doi:10.7554/elife.90254) can be followed below.

Read counts are not given, so values of variants with three or more changes are uncertain.

The labels stand for the following.
B1: LINE1-full (parent)
chain: UACGUAGGUGGUUUUCCCCUGAUAGUGCUAAGGGGGCCUGGAAGUUUGGACUGGGCAGAGCUCAACACAGCGUGGCAAAGUGGCUGUGGCUAGACUGCCUCUCUGGAUUCCUCGUCACUCAGCAGGGCAUCUCUGAGAGAAAUGCC

The variants in the series derive from B1. Nature of the series: self-cleavage, relative activity (ratio to wild type); higher = more cleavage; in vitro, sequencing; the parent is a self-cleaving ribozyme.
Turning to U45C A57U U102C, the self-cleavage came out at 0.
The figure for U45C U47C U85C A141G is 0.23; for U45C U102C U108C it is 0.77; for A43U U45C U112C it is 0.59.
In the case of U45C U108C C111U A140G A142C it was 1.26.
The figure for G44A U45C G89U A121G U132C is 0.04; for U45A U104C G144U it is 1.51; for U45A A77G A142G it is 2.25.
As to A43U U47C G88A U119C, the self-cleavage was found to be 0.06.
In the case of A43U U62C C113A it was 0.02; in that of U45C A69G C84U, 0.04.
The figure for A43U A94G U100C C110U is 0.58.
In the case of U45C G114A A117G it was 1.75; in that of U45A A94G A138U, 0.38.
Regarding U45A U47C A64U A77U U143C, the self-cleavage worked out at 0.51.
For A43U A77U U115C, the self-cleavage is 1.51.
As to U46A A50G A92G A140G, the self-cleavage was 0.08.
In the case of U45A U91A A92U U112C it was 0.81; in that of U45C U62C U87A, 0.14.
In the case of U45A U46C U104A A117U it was 1.48; in that of U45C A57U A59G U100C, 0.14; in that of U45G U52C U143A, 0.33.
In the case of G44C U52C C68A A141G it was 0.03.
Regarding U45C U96A U143A, the self-cleavage turned out to be 0.
The figure for U45C A64U U119A is 0.5.
As to U45C U119C A142G, the self-cleavage stood at 2.78.
The figure for U45C U52A U115C is 2.
Take U45G U52A U102G U132C: the self-cleavage was 0.61.
In the case of U45C G74A U112A it was 1.17; in that of U45C G82A A142G, 1.58; in that of U45C U85A A94U A141G, 0.09.
In the case of U45C U119C G135U it was 0.95; in that of U45C G48A C61U, 0.05.
Turning to U45A U108C U112A, the self-cleavage amounted to 0.82.
The figure for U45A U46G G114A A140G is 1.48.
In the case of A43U A64G C71U U85C it was 0.07; in that of A43U A67G U81C, 0; in that of U45C U47A U109C A129G, 1.47.
In the case of U45A A79G U102A it was 1.52; in that of U45C C113A U132C, 1.19; in that of U45C A59U A136G, 1.28.
A43U U100C C110U: the self-cleavage stood at 1.78.
The figure for U45G A69U C113U is 0.07.
On to U45C A50U A94U U112A A117C A141G, for which the self-cleavage came to 0.44.
The figure for G44A U81C G93U U102C A121G A140U is 0.03; for G44U A59G C111U U119C it is 0.07; for A43U U85C A94G it is 0.
In the case of U45A A79U A121G it was 1.8.
In the case of U45G G70A A79U A94G A121G it was 0.11.
U45C A138U A142U: the self-cleavage was found to be 0.64.
The figure for A43G U109A A124G A140U is 0.25.
In the case of U45A U52C A92G A117U it was 0.04; in that of U45C U108C A136G A142U U143G, 1.15.
Take U45G A64G A124G: the self-cleavage was 0.15.
The figure for U45C A65G U104C is 0; for U45C A79G U102C it is 1.84; for U45C G58A U81A A94U U108C it is 0.03.
The figure for U45C G72A C95A is 0.04; for U45C U115C A142G it is 2.49.
In the case of U45C A79G G86A A136G it was 0.06.
For the variant A43U U47C A65G U73A U91C A140U, the self-cleavage turned out to be 0.
Take A43U U47C A69U: the self-cleavage amounted to 0.02.
On to U45G A77U U81A A141G, for which the self-cleavage came to 2.07.
The figure for U45C A50G U52A U108A is 1.31; for U45C A77G U91C it is 0.84.
In the case of U45C A69G G80U U115C U134G, the self-cleavage came to 0.92.
In the case of U45A A65G A141G it was 0.06.
In the case of U45C U81A A124U it was 2.24.
In the case of U45C A69U U73C it was 0.14; in that of U45C A50G G114A, 1.58.
For G44U U45C A57G U130A, the self-cleavage is 0.63.
The figure for A43U U47G A124G is 0.49.
The figure for U45C U85C A94U U134A is 0.
The figure for A43G U112C A121C A142G is 0.84; for U45G A94G U104A it is 0.
Take U45C G54A A65G U85C: the self-cleavage turned out to be 0.05.
The figure for U45C A50G A69C G74A is 0; for U45C A57U A140G it is 0.07.
The figure for A43G U112C A117G is 0.84; for A43U A64G U87C it is 0.
Turning to U45C A78G U96A U132C, the self-cleavage worked out at 0.
The figure for A43U G53U A57G A94G U108A U109C is 0.27.
In the case of U45C A69G U108C it was 0; in that of U45A A64G U115A U132C A138U, 0.24.
In the case of U45A C116U A124G A138G it was 0.56.
As for U45C U81C C131U, the self-cleavage came to 1.59.
In the case of U45C U46C A57U G72A U115C it was 0.24; in that of A43U U115C C116U, 1.42; in that of A43U U62C A65G A79G, 0.
The figure for U45C A50G U52A A69G U85C G97A A129U is 0; for U45C G48A U91G it is 0.01.
Consider U45A A57C U85A, for which the self-cleavage worked out at 0.16.
Take U45C U96C U143C: the self-cleavage was 0.24.
In the case of A43U A94G U132C it was 0.12; in that of U45C U47A U112C, 0; in that of U45G A59G A79G A142G, 0.
In the case of U45A A78G C95U it was 0.16; in that of A43U U81C U87G, 0.4.
Take U45C A65G G97U: the self-cleavage was 0.
In the case of U45C A69U A77U A107G U112A it was 0.06; in that of U45C U102C U130C, 2.76; in that of U45A U46C A124U, 1.5.
On to G44A C61G A129G, for which the self-cleavage was determined as 0.
The figure for U45C U85C U100C is 0; for U45C U81C A94U it is 0.
The figure for A43U A65G C76U A77G U115C is 0.03; for U45C A57U U73A it is 0.04; for U46A A59G A77G C128U A138G it is 0.1.
The figure for U45C U62C A136G is 0.
Consider G44A A57G G58A U62C U81A G127A, for which the self-cleavage was 0.01.
Regarding A43U A79G U87C, the self-cleavage was determined as 0.2.
In the case of A43U C68U C110U U115A C146U it was 0.07.
In the case of U45C A79G A138U A141G it was 2.1; in that of A43U U52A A136G A140G, 1.26.
The figure for U45A A69G U81C is 0.6.
On to U45C A78G C111U, for which the self-cleavage stood at 1.01.
Regarding U45C U87A U112A A129G, the self-cleavage is 0.12.
In the case of U45C A124C A129U U132C it was 1.61; in that of U45C U52A A57U A77C A107G U132G A138U, 0; in that of A43U U45C U47A, 1.25.
The figure for U45C A94G U96A U104C is 0.
Take U45C G53U U96A: the self-cleavage came out at 0.07.
Take U45A U47C U115C G126A: the self-cleavage is 1.9.
Take U45C A50U U91C: the self-cleavage stood at 0.
The figure for G44A G89A C116A is 0.07; for U45C A59U A64G U132C A138G it is 0.28.
For the variant U45C A94G U96C, the self-cleavage is 0.
The figure for U45A U102C U134A A141G is 2.25; for U45C A69U U100C U115C it is 0.
In the case of U45C A79G C123U it was 0.66; in that of U45C A77G A94G, 0; in that of U45A C71A G89A, 0.02.
In the case of U45A U73C A142G it was 1.57; in that of U45G A67G U119A A140G, 0.7; in that of G44A G80U C118A, 1.69.
As for U45A A64G U102C, the self-cleavage amounted to 0.44.
In the case of U46A A57G C84U it was 0.09.
The figure for U45A A69G U115C U134C is 0; for A43U A67C U73C U104A it is 0.2; for G44A A64G U115C it is 0.
The figure for U45C G88A G127A is 0.08; for G44A G83U A121G A136G it is 1.01.
For the variant U45G A117G A138U, the self-cleavage was found to be 1.45.
In the case of U45G A65G G74A U119C C131A it was 0.08; in that of U45G A57U U115C A124G A138U, 0; in that of U45C A50U G58U G93U U134C A140G, 0.
With U45C G55A U87A, the self-cleavage turned out to be 0.03.
The figure for U45C U46G U62C is 0.31; for A43U A69U U109C G144A it is 0.14.
In the case of U45C U52C U96A U100C A142G it was 0; in that of U45C U85A U143A, 0.08.
The figure for U45C U102C A142G is 0.9.
In the case of U45G U47G U108C, the self-cleavage was found to be 0.81.
In the case of U45C C71U U87C it was 0.03; in that of U45A U52C U109C, 0.82; in that of U45C A107G A140G, 0.53.
The figure for A43U A59G A67U A121G is 0.13; for U45G U96C G125A it is 0.09; for U45C A57U U134A it is 0.07.
The figure for U45A A92G G125U is 0.03.
For U45G A67G U73C A142G, the self-cleavage was 0.
In the case of U46A A57G U87A it was 0.13.
On to U45A U73A U134A, for which the self-cleavage was found to be 1.26.
U45A G106A A121U: the self-cleavage came to 1.16.
Take U45C U115A A140G: the self-cleavage amounted to 1.36.
In the case of U45G U108C A141G it was 1.35; in that of U45C A50G A117U A138G A140C, 2.45.
